Measurements reported in PubChem BioAssay AID504332 (National Center for Advancing Translational Sciences (NCATS), 2011).
About 31,000 (8.9%) of roughly 350,000 compounds were called active. The inconclusive results got no clear call from the source; some entries with a clear call stand among them for comparison. Calls follow the shape of the dose curve; as a rule, active = well fitted inhibition curve with a large enough effect; inconclusive = small, poorly fitted or top-dose-only effect; inactive = no such curve, though single readings can be large or run the other way. Where the call is inconclusive, the potency comes from a doubtful curve fit.

target: Histone-lysine N-methyltransferase EHMT2 (Homo sapiens) (UniProt Q96KQ7); assay: qHTS Assay for Inhibitors of Histone Lysine Methyltransferase G9a; conditions: G9a H3K9 monomethylation, AlphaScreen, 2 h; activity, negative = inhibition: at 59 µM (top of the series) unless noted; also: nearly all actives have a fitted effect of over 75% in size
Procedure, shortened: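 Signal arises when biotinylated H3K9 peptide, once monomethylated, bridges streptavidin donor and antibody-captured acceptor beads. Enzyme at 20 nM was preincubated 15 min with test compounds; peptide 500 nM and SAM 20 uM then reacted for 2 h.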
% is scaled to controls: 0 for no effect and ±100 for the full control effect; potency is read from the fitted curve at half-maximal effect; tags tell the direction and shape of the fitted curve.

UniProt Q96KQ7, sequence (Q96KQ7 whole entry, looked up): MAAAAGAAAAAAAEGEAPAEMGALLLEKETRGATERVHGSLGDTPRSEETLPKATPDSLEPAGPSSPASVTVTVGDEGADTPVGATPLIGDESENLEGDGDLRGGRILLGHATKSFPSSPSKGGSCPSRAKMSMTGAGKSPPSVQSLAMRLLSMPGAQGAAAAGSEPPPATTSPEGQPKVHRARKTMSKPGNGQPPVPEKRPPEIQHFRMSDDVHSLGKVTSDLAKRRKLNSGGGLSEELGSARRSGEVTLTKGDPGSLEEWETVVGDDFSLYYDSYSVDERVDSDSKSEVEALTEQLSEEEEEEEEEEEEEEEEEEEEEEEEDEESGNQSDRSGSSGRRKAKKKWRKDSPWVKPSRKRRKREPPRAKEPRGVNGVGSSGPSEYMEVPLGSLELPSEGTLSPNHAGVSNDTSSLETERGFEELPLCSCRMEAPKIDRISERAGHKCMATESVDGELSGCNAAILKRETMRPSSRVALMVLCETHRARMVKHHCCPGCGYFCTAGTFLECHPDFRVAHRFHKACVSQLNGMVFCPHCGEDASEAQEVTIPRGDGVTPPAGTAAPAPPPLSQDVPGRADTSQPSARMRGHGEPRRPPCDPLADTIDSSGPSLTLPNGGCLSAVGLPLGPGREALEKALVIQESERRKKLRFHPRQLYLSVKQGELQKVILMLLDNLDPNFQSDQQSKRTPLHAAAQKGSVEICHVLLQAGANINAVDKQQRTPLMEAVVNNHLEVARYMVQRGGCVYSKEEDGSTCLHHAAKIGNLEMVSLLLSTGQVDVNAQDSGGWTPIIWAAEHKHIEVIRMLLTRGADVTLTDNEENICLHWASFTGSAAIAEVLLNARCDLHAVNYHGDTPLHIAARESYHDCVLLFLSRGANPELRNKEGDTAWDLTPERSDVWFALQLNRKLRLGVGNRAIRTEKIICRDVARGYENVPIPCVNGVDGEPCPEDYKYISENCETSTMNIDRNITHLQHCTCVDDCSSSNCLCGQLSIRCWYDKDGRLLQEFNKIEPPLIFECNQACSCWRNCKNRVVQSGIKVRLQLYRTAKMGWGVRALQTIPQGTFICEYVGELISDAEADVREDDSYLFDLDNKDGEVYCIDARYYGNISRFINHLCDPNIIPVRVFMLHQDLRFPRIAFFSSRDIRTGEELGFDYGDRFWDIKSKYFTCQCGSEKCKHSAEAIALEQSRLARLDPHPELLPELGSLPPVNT

Row | Structure (SMILES) | activity, negative = inhibition | Potency
1 | Cc1ccc(NS(=O)(=O)c2ccc(OCC(=O)NCc3ccco3)cc2)cc1 | inactive: -2.23% [at 12.7 µM] | –
2 | Cc1cc(C)cc(NC(=O)C(NCC2CCCO2)c2ccccc2)c1 (centres undefined) | – | active: 2.82 µM
3 | COc1ccc(C(=O)NC(=S)Nc2cccnc2)cc1Cl | – | active: 50.1 µM
4 | Cc1nn(C)c(C)c1NC(=O)c1ccc(Cl)cc1 | inactive: 16.5% [at 12.7 µM] | –
5 | O=S(=O)(/N=C(/Nc1cccc2ccccc12)c1ccccc1)c1ccccc1 | – | inactive
6 | Cc1c(Cl)cccc1NC(=S)/C(=C(\[O-])c1ccc(Cl)s1)[n+]1ccccc1 | – | inconclusive: 25.1 µM [inhibitor, single point]
7 | NS(=O)(=O)c1ccc(N=Nc2c(-c3ccccc3)[nH]n(-c3nc(-c4ccccc4)cs3)c2=O)cc1 | – | inconclusive: 35.5 µM [inhibitor, single point]
8 | N#C/C(=C/c1ccccc1Cl)c1nc2ccccc2c(=O)[nH]1 | – | inactive
9 | NC(=O)C1CCN(c2nc(-c3ccccc3)nc3c2oc2ccccc23)CC1 | – | inactive
10 | CC(C)C1N=C2c3ccccc3N=C(SCc3cc(=O)n4cc(Cl)ccc4n3)N2C1=O (centres undefined) | – | inactive
11 | COc1ccc(C2=NN(C(N)=S)C(c3ccco3)C2)cc1 (centres undefined) | – | active: 22.4 µM
12 | COc1ccc(N2C(=O)CSC23C(=O)N(CC(=O)Nc2ccccc2F)c2ccccc23)cc1 (centres undefined) | – | inactive
13 | OC(COC(c1ccccc1)c1ccccc1)CN1CCOCC1 (centres undefined) | – | inactive
14 | O=C(C1CC(=O)N(c2ccc(Cl)cc2)C1)N1CCCCCC1 (centres undefined) | – | inconclusive: 56.2 µM [inhibitor, partial curve, poor fit]
15 | Clc1cccc(-c2nc3ccccn3c2Nc2ccc3c(c2)OCCO3)c1 | – | inconclusive: 11.2 µM [inhibitor, partial curve, poor fit]
16 | CC(C)N(Cc1nc(-c2ccc3c(c2)OCO3)no1)CC1CCC(=O)N1 (centres undefined) | – | inconclusive: 79.4 µM [inhibitor, single point]
17 | Cc1c(Cl)cnc(NC(=O)COC(=O)c2cccc(S(=O)(=O)N3CCc4ccccc4C3)c2)c1Cl | – | inconclusive: 39.8 µM [inhibitor, single point]
18 | c1ccc(-c2c[nH]c3[n+]2CCCCC3)cc1 | – | inconclusive: 50.1 µM [inhibitor, partial curve]
19 | COc1ccc(-n2c(=O)cc(N3CCN(c4ccccc4F)CC3)[nH]c2=O)cc1 | – | inconclusive: 31.6 µM [inhibitor, single point]
20 | CCOc1ccccc1C(=O)N/N=C/c1c[nH]c2ccccc12 | – | inactive
21 | Cc1ccc(S(=O)(=O)c2ccc(C)cc2)cc1 | – | inactive
22 | COc1ccc(C)cc1N1CC(C(=O)Nc2ccccc2C(=O)NC2CC2)CC1=O (centres undefined) | inactive: -1.61% [at 2.33 µM] | –
23 | COc1cccc(OC(=O)CSc2nnc(-c3cccs3)o2)c1 | – | inconclusive: 39.8 µM [inhibitor, single point]
24 | CCCCn1c(N)c(N(CC(C)C)C(=O)c2ccc(-c3ccc(Cl)cc3)o2)c(=O)[nH]c1=O | – | inconclusive: 0.251 µM [inhibitor, full curve, poor fit]
25 | COC(=O)/C=C1\N/C(=N\c2nc(C)cc(C)n2)N(c2ccccc2)C1=O | – | inactive

Row | Structure (SMILES) | activity, negative = inhibition | Potency
26 | CC(/C=C/c1ccccc1)=N\NC(=O)c1cc(C)[nH]n1 | – | inactive
27 | COc1ccc(Cl)cc1NC(=O)CN(C)C(=O)C1CC(=O)N(Cc2ccc(C)cc2)C1 (centres undefined) | – | inconclusive: 2.51 µM [inhibitor, full curve, poor fit]
28 | O=C(c1ccccc1-n1cccn1)N1CCc2c([nH]c3ccccc23)C1c1ccccn1 (centres undefined) | – | inconclusive: 56.2 µM [inhibitor, partial curve]
29 | Cc1ccc(N(C)C(CNS(=O)(=O)c2ccccc2)c2ccccc2)cc1 (centres undefined) | – | inconclusive: 12.6 µM [inhibitor, partial curve]
30 | Cc1cccc(N2CCN(C(=O)NC3CCCCC3)CC2)c1C | – | inactive
31 | COc1ccc(C2C=C(c3ccc(F)cc3)NC(=S)N2)cc1OC (centres undefined) | – | active: 44.7 µM
32 | COc1ccc(S(=O)(=O)N2CCC(N3CCN(c4ccccc4OC)CC3)CC2)cc1 | – | active: 3.16 µM
33 | Cc1ccc(S(=O)(=O)c2c(C)nn(-c3ccccc3)c2OC(=O)c2ccc(Br)o2)cc1 | – | inconclusive: 22.4 µM [inhibitor, single point]
34 | Cc1cc(C)c(S(=O)(=O)N(C)CC(=O)NCCCn2ccnc2)c(C)c1 | – | inactive
35 | Cc1ccc(NC(=O)Cn2cc(C(=O)c3ccco3)c3ccccc32)cc1C | – | inactive
36 | CCN(CC(=O)Nc1c(F)cccc1F)C(=O)CSc1nnc(-c2ccco2)n1CC | inactive: -9.11% [at 12.7 µM] | –
37 | Cc1cc(Oc2ccc(Cl)cc2)nc(SCC(=O)c2ccccc2)n1 | – | inactive
38 | CCn1cc(/C=N\NC(=O)Cc2ccc(Cl)cc2)cn1 | – | inconclusive: 28.2 µM [inhibitor, single point]
39 | CCOCCCNc1nc(=S)[nH]c2cc(OC)c(OC)cc12 | – | active: 35.5 µM
40 | O=C(Nc1sc2c(c1C(=O)O)CCCC2)c1cccs1 | – | inconclusive: 50.1 µM [inhibitor, partial curve]
41 | COc1ccc(-n2ccnc2SCC(=O)Nc2cccc(OC)c2)cc1 | – | inactive
42 | Cc1ccc(CNC(=O)C2CCN(C(=O)Nc3ccccc3)CC2)cc1 | – | inactive
43 | CCN(CC)S(=O)(=O)c1cc(NC(=O)C2CCN(c3ncnc4sc(C)c(C)c34)CC2)ccc1Cl | – | active: 44.7 µM
44 | Cc1ccc(CNC(=O)C2CCC(CNS(=O)(=O)c3ccc(C)cc3)CC2)cc1 (centres undefined) | – | inactive
45 | Cc1ccc(NC(=O)CN(C)CCOc2ccccc2)c([N+](=O)[O-])c1 | – | inconclusive: 89.1 µM [inhibitor, single point]
46 | N#Cc1c(-c2ccccc2Cl)cc(-c2ccccc2)[nH]c1=S | – | inactive
47 | Cc1nn(-c2ccccc2)c(N)c1C(O)(C(F)(F)F)C(F)(F)F | – | inactive
48 | CN1CCN(c2cc(=O)n(C3CCCCC3)c(=O)[nH]2)CC1 | – | active: 35.5 µM
49 | COc1ccc(/C=N\NS(=O)(=O)c2ccc(Br)cc2)cc1COc1ccccc1[N+](=O)[O-] | – | inconclusive: 20 µM [inhibitor, single point]
50 | CCOC(=O)c1cc(-c2ccccc2)nc2c1c(C)nn2-c1ccccn1 | – | inconclusive: 35.5 µM [inhibitor, single point]

Row | Structure (SMILES) | activity, negative = inhibition | Potency
51 | C=CCn1c(O)c(CN2CCOCC2)c(C)c(C#N)c1=O | – | active: 50.1 µM
52 | CCOC(=O)c1c(C)c(C(=O)N2CCN(c3ccccc3)CC2)c(C)n1C | – | inconclusive: 89.1 µM [inhibitor, single point]
53 | COc1ccc(-c2ccc(CNCCCSc3nnnn3C)o2)cc1Cl | – | inconclusive: 25.1 µM [inhibitor, partial curve, poor fit]
54 | CCCCN(C)CCNC(=O)c1ccc(Cn2c(=S)[nH]c3ccc(Br)cc3c2=O)cc1 | – | inconclusive: 15.8 µM [inhibitor, partial curve, poor fit]
55 | Cc1cccc(NC(=O)c2cccc(NS(=O)(=O)c3ccc(Cl)cc3)c2)c1 | inconclusive: -55.3% [inhibitor] [at 2.33 µM] | –
56 | O=C(CSCc1ccc(Cl)cc1)Nc1ccc(S(=O)(=O)N2CCOCC2)cc1 | – | inconclusive: 25.1 µM [inhibitor, single point]
57 | Cn1cccc1/C=N/n1cnnc1 | – | inconclusive: 1.12 µM [inhibitor, full curve, poor fit]
58 | O=C(COC(=O)CCc1nc2ccccc2s1)Nc1nc(-c2ccccc2)cs1 | – | inactive
59 | Cc1cc2oc(C(=O)Nc3ccc(S(=O)(=O)N4CCC(C)CC4)cc3)cc(=O)c2cc1C | – | inactive
60 | Cc1ccc(-n2nc3c(N4CCC(C(=O)NC5CCCCC5)CC4)nnc(C)c3c2C)cc1 | – | inactive
61 | COCC(=O)Nc1nc2n(n1)C(c1ccccc1)CC(c1ccc(OC)cc1)N2 (centres undefined) | – | inconclusive: 22.4 µM [inhibitor, single point]
62 | CCN1C(=O)[C@H]2[C@H]3[C@H](O)[C@H](O)C/C(=N\OC[C@@H](C)[C@H](OCc4ccccc4)C(C)C)[C@@H]3CC[C@H]2C1=O | – | inconclusive: 50.1 µM [inhibitor, partial curve]
63 | N#Cc1cnc(NN)nc1 | – | active: 50.1 µM
64 | Cc1ccc(OCC(=O)N/N=C/c2cc([N+](=O)[O-])ccc2N2CCCCC2)cc1 | – | inconclusive: 89.1 µM [inhibitor, single point]
65 | Cc1[nH]c(C)c2c(=O)n(-c3ccccc3)ncc12 | – | inconclusive: 89.1 µM [inhibitor, single point]
66 | O=C(CSCc1ccccc1)Nc1cc([N+](=O)[O-])ccc1F | – | active: 31.6 µM
67 | COc1ccc(NC(=O)CC2C(=O)OCC3CCCCN32)cc1Cl (centres undefined) | – | inconclusive: 89.1 µM [inhibitor, single point]
68 | O=C(O)CSCC(=O)Nc1cccc(C(F)(F)F)c1 | – | inconclusive: 89.1 µM [inhibitor, single point]
69 | COc1ccc(OC)c(-c2csc(NC(=O)CSc3ccc([N+](=O)[O-])cc3)n2)c1 | – | inconclusive: 25.1 µM [inhibitor, single point]
70 | COc1ccccc1NC(=O)CSc1ccc(-c2ccco2)nn1 | – | inconclusive: 63.1 µM [inhibitor, single point]
71 | COc1ccccc1N1CCN(CCCNC(=O)c2nnc(Cc3ccc(F)cc3Cl)o2)CC1 | – | inactive
72 | COc1cccc(/C=N/N2C(=O)NC3(CCCCC3)C2=O)c1O | – | active: 15.8 µM
73 | O=C1CN=CN=CN1c1ccc(Cl)cc1Cl | – | inconclusive: 1.26 µM [inhibitor, full curve]
74 | CCc1nc2sc3c(c2c(=O)n1NC(=O)CCl)CCCC3 | – | inconclusive: 89.1 µM [inhibitor, single point]
